From PubChem BioAssay AID588855 (National Center for Advancing Translational Sciences (NCATS), 2011)
Screen size: about 410,000 compounds; about 5,000 (1.2%) were called active. Inconclusive results, whose numbers are uncertain, are shown with a selection of clear calls. Calls come from the whole dose curve; as a rule, active = well fitted inhibition curve with a large enough effect; inconclusive = small, poorly fitted or top-dose-only effect; inactive = no such curve, though single readings can be large or run the other way. Potencies beside an inconclusive call are fits to weak or partial responses and may not hold up.

Assay: qHTS for Inhibitors of TGF-b; note: nearly all actives have a fitted effect of over 65% in size
Settings: HepG2 CAGA-GFP TGF-b/SMAD3 reporter, GFP fluorescence, 18 h, TGF-beta stimulated, 500 pg/mL final; series mostly up to 46.1 µM; activity, negative = inhibition: at the top concentration
Summary of the method: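 Cell-based qHTS in HEPG2 carrying a CAGA-GFP Smad reporter; compounds added before 500 pg/mL final TGF-beta, 18 h incubation at 37 degrees C, GFP fluorescence quantified per cell by imaging cytometry.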
% is set by controls: 0 for no effect and ±100 for the full control effect; potency is the fitted concentration of half-maximal effect; tags give direction and shape of the fitted curve.

Row | Structure (SMILES) | activity, negative = inhibition | Potency
1 | COc1ccc(-c2cc3c(=O)n(CC(=O)Nc4cc(F)ccc4F)ccn3n2)cc1OC | inactive: 5.6% | –
2 | C[n+]1c(-c2ccccc2)cc2c(=Cc3ccc([N+](=O)[O-])cc3)c3ccccc3n21 | – | inconclusive: 4.47 µM [inhibitor, full curve, poor fit]
3 | O=C1COc2ccc(-c3cc(-c4ccccc4)c4c(n3)-c3ccccc3OC4)cc2N1 | inactive: -1.84% | –
4 | Cc1nn(-c2ccccc2)c2sc(C(=O)Nc3ccc(Br)cc3)cc12 | inactive: -18.7% | –
5 | OCOCCCn1c(C2CCCN2c2nc(-c3ccc(F)cc3)cs2)nc2cc(Cl)c(N3CCCCC3)cc21 (stereo not given) | – | inconclusive: 20 µM [inhibitor, single point]
6 | CCOc1cc(/C=C2\C(=O)NN(c3ccccc3)C2=O)cc([N+](=O)[O-])c1O | – | inconclusive: 1.12 µM [inhibitor, full curve]
7 | O=C(CN1CCOCC1)N1CCCc2ccccc21 | – | inconclusive: 6.31 µM [inhibitor, single point]
8 | O=c1cc(-c2c(O)c3ccccc3n(Cc3ccccc3)c2=O)[nH][nH]1 | – | inconclusive: 35.5 µM [inhibitor, partial curve, poor fit]
9 | O=S(=O)(c1ccc(NC(=S)NCCC(c2ccccc2)c2ccccc2)cc1)N1CCOCC1 | – | inconclusive: 35.5 µM [inhibitor, single point]
10 | COC(=O)c1ccc(NS(=O)(=O)c2ccc3[nH]c4c(c3c2)CCCC4)cc1 | – | inconclusive: 35.5 µM [inhibitor, single point]
11 | COc1cccc(-n2nnnc2S(C)(=O)=O)c1 | – | inconclusive: 3.55 µM [inhibitor, full curve, poor fit]
12 | CCC(=O)N1CCc2cc(S(=O)(=O)NCCC(=O)NCc3ccc(C)cc3)ccc21 | – | inconclusive: 0.0891 µM [inhibitor, full curve, poor fit]
13 | CCCCn1c(N)c(-c2nc3ccccc3s2)c2c([N+](=O)[O-])nn(C)c(=O)c21 | – | inconclusive: 3.16 µM [inhibitor, single point]
14 | Cc1ccc(-c2nnn3c2nc(NCCc2ccc(S(N)(=O)=O)cc2)c2ccccc23)cc1 | – | inconclusive: 3.16 µM [inhibitor, partial curve, poor fit]
15 | Cc1cccc(C(c2sc3nc(-c4ccco4)nn3c2O)N2CCN(c3ccccc3F)CC2)c1 (stereo not given) | – | inconclusive: 35.5 µM [inhibitor, single point]
16 | COc1cc2c(cc1OC)CN(C(=O)c1ccc(N3CCCC3)c([N+](=O)[O-])c1)CC2 | – | inconclusive: 20 µM [inhibitor, single point]
17 | CCOC(=O)C1CCCN(CCC(=O)Nc2c(C(=O)OC)[nH]c3cc(OC)ccc23)C1 (stereo not given) | inactive: -3.47% | –
18 | COc1cc(OC)cc(C(=O)Nn2cc(C(=O)Nc3ccc(F)cc3F)c3ccccc3c2=O)c1 | – | inconclusive: 25.1 µM [inhibitor, single point]
19 | Cc1c(OC(C(=O)O)c2ccccc2)ccc2c(-c3ccccc3)cc(=O)oc12 (stereo not given) | inactive: 1.06% | –
20 | COc1ccccc1CCC(=O)Nc1cccc(S(=O)(=O)N2CCCCCC2)c1 | – | inconclusive: 1.26 µM [inhibitor, full curve, poor fit]
21 | CN(C)S(=O)(=O)c1ccc(Cl)c(NC(=O)COc2ccccc2[N+](=O)[O-])c1 | inactive: 4.87% | –
22 | Nc1nonc1C(=O)NCCN=Cc1cc(Cc2ccccc2)cc(Br)c1O | – | inconclusive: 35.5 µM [inhibitor, single point]
23 | COc1ccccc1C(=O)OCc1cc(=O)n2nc(-c3cccs3)sc2n1 | – | inconclusive: 0.355 µM [inhibitor, partial curve, poor fit]
24 | O=C(COc1ccccc1C(=O)Nc1ccccc1)Nc1ccc(Br)cc1 | inactive: 1.23% | –

Row | Structure (SMILES) | activity, negative = inhibition | Potency
25 | O=[N+]([O-])c1ccc(N2CCCCC2)cc1SCCO | inactive: -3.47% | –
26 | CC(=O)CCS(=O)(=O)c1ccc(C)c(C)c1 | – | inconclusive: 11.2 µM [inhibitor, partial curve, poor fit]
27 | CN(C)c1ccc2c(c1)OC(N)=C(C#N)C2c1cccc(F)c1 (stereo not given) | – | inconclusive: 2.51 µM [inhibitor, partial curve, poor fit]
28 | CC(=O)Nc1c(S(=O)(=O)c2ccccc2)c2nc3ccccc3nc2n1Cc1ccccc1 | inactive: -6.93% | –
29 | CCOC(=O)c1cc(C)nc(S(C)(=O)=O)c1C#N | – | inconclusive: 35.5 µM [inhibitor, single point]
30 | CNc1nc2cc([N+](=O)[O-])c([N+](=O)[O-])cc2nc1NC | – | active: 7.08 µM
31 | Cc1cccc(N2CCN(C(=O)C3CCN(S(=O)(=O)c4ccc5c(c4)oc(=O)n5C)CC3)CC2)c1C | – | inconclusive: 7.08 µM [inhibitor, full curve, poor fit]
32 | Cc1cc(C)c2oc(C(=O)Nc3ccc(S(=O)(=O)N(C)c4ccccc4)cc3)cc(=O)c2c1 | – | inconclusive: 3.98 µM [inhibitor, single point]
33 | CC(=O)OC1=Cc2c(ccc3ccc(=O)oc23)OC1(C)C | – | inconclusive: 6.31 µM [inhibitor, single point]
34 | N#CC1(NC(=O)COC(=O)c2nccnc2N)CCCCC1 | – | inconclusive: 0.562 µM [inhibitor, full curve, poor fit]
35 | Cc1ccc(S(=O)(=O)N2CCC(=O)N(CCOCc3ccc(C(F)(F)F)cc3)CC2)cc1 | – | active: 11.2 µM
36 | CCC(=O)NC(=S)Nc1cccc(Cl)c1N1CCCCC1 | – | active: 14.1 µM
37 | COc1ccc(/C=N/n2cnnc2)cc1COc1ccccn1 | – | inconclusive: 12.6 µM [inhibitor, single point]
38 | CC(C)(C)Cc1c(-c2ccc(F)cc2)nc2ccc(Br)cn12 | – | inconclusive: 15.8 µM [inhibitor, single point]
39 | O=C(NC(Cc1c[nH]c2ccccc12)C(=O)OCC(=O)c1cccc2ccccc12)c1cccs1 (stereo not given) | – | inconclusive: 11.2 µM [inhibitor, partial curve, poor fit]
40 | Cc1nc(-c2coc3cc(OCC(=O)O)ccc3c2=O)cs1 | inactive: -12.2% | –
41 | COc1ccc(C)cc1N(CC(=O)NCCN1CCOCC1)S(=O)(=O)c1ccccc1 | inactive: 1.73% | –
42 | CCN(CC)c1ccc(CNc2nc3ccccc3n2CC)cc1 | – | inconclusive: 35.5 µM [inhibitor, single point]
43 | O=C(Nc1nc(-c2ccc(Br)cc2)ns1)c1ccccc1F | inactive: 2.81% | –
44 | CN(C)c1ccc(C(C(=O)NCc2ccccc2)N(Cc2ccco2)C(=O)c2snc(C(N)=O)c2N)cc1 (stereo not given) | inactive: 18.3% | –
45 | O=C(Nc1ccc(N2CCOCC2)cc1N1CCOCC1)c1ccc(Cl)cc1 | – | inconclusive: 2 µM [inhibitor, partial curve, poor fit]
46 | C(=N\Nc1nc2ccccc2s1)/c1ccco1 | inactive: -3.91% | –
47 | COc1ccc(/C(C)=N/NC(=S)Nc2cc(C)ccc2C)cc1 | – | inconclusive: 0.501 µM [inhibitor, full curve, poor fit]
48 | COc1ccc(C2c3cc(OC)c(OC)cc3CCN2C(=O)c2ccccc2)cc1OC (stereo not given) | inactive: 5.03% | –

Row | Structure (SMILES) | activity, negative = inhibition | Potency
49 | O=C(O)CCCCCCCCCCCNC(=O)NC12CC3CC(CC(C3)C1)C2 | inactive: 13.6% | –
50 | COc1ccccc1CCNC(=O)Cn1c(=O)oc2ccccc21 | inactive: 0% | –
51 | CSc1ccc(CN2CCC2(C)C(=O)NCc2ccccc2Br)cc1 (stereo not given) | – | inconclusive: 35.5 µM [inhibitor, single point]
52 | Cc1cccc(N2C(=O)c3cccc4c(N(C)CCO)ccc(c34)C2=O)c1 | inactive: 128% | –
53 | O=c1[nH]cc(F)c(=O)[nH]1 | inactive: 17.4% | –
54 | Cc1ccc(C)c(CN2C(=O)c3ccccc3S(=O)c3ccc(C(=O)N(C)Cc4ccccc4)cc32)c1 (stereo not given) | – | inconclusive: 12.6 µM [inhibitor, single point]
55 | NS(=O)(=O)c1ccc(CCNC(=O)c2ccccc2-c2ccccc2)cc1 | – | inconclusive: 22.4 µM [inhibitor, single point]
56 | O=C(NCc1ccccc1)C12CC3CC(CC(C3)C1)C2 | – | inconclusive: 3.55 µM [inhibitor, partial curve, poor fit]
57 | COc1ccc(CNc2nc3ccccc3n2CCN2CCOCC2)cc1 | inactive: -1.27% | –
58 | Cc1cccc(CN2CCc3c(OCC(=O)NCc4ccco4)cccc3C2=O)c1 | – | inconclusive: 31.6 µM [inhibitor, single point]
59 | NC(N)=Nc1nc(C2COc3ccccc3O2)cs1 (stereo not given) | inactive: 0.327% | –
60 | O=C(COC(=O)/C=C/c1cccs1)Nc1ccc(Cl)cc1F | inactive: -17.3% | –
61 | CN1OC[C@@H]2CN(C(=O)NC3CCCCC3)[C@H](c3ccc(N4CCCCC4)cc3)C[C@@H]21 | inactive: 2.78% | –
62 | Oc1ccccc1N=Nc1nc(-c2ccccc2)c(-c2ccccc2)[nH]1 | – | inconclusive: 8.91 µM [inhibitor, partial curve, poor fit]
63 | O=C(NCc1ccco1)c1cccc2c1C(=O)c1ccc(/C=C/c3ccccc3)cc1S2(=O)=O | – | inconclusive: 35.5 µM [inhibitor, single point]
64 | COc1cccc(-c2cnc(NCc3ccccc3Cl)n2C)c1 | – | inconclusive: 17.8 µM [inhibitor, single point]
65 | CCOc1ccccc1NC(=O)c1cc(S(=O)(=O)NC2CCCC2)ccc1F | – | inconclusive: 35.5 µM [inhibitor, single point]
66 | c1ccc2c(Cn3ccnc3)cccc2c1 | inactive: -2.67% | –
67 | Cc1noc(C)c1C(=O)OCC(=O)Nc1ccc(S(N)(=O)=O)cc1 | inactive: 1.72% | –
68 | C[C@H](NS(=O)(=O)OCC(Cl)(Cl)Cl)C1CC1c1ccccc1 (stereo not given in full) | – | inconclusive: 35.5 µM [inhibitor, single point]
69 | Cc1nnc(SCc2ccccc2)n1N | inactive: -0.0802% | –
70 | Cc1ccc(C2=CC(C)(c3ccc(C)cc3)Nc3nc(C(F)(F)F)nn32)cc1 (stereo not given) | – | inconclusive: 22.4 µM [inhibitor, single point]
